Source: the supplement of paper PMC10126150
Values marked as one replicate rest on one cluster of the flow cell; about a third of the high ones do not repeat.

Test system: ATP
Assay: switch fluorescence ratio, 500 uM ATP over buffer (Cy3 cluster intensity, sum of 5 cycles each) (fold (ratio)); higher = stronger signal-on switching upon ATP binding; sequences stand for … in TCGTCGGCAGCGTCAGATGTGTATAAGAGACAGTTTTTTTTTTTTTTTTTTTTTTTTT…TC
Details: aptamer strand: ATP DNA aptamer (quencher-CACCTGGGGGAGTATTGCGGAGGAAGG + anchor), 100 nM annealed; ATP concentration: 500 uM; one replicate
Outline: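 For every switch-domain sequence, the fluorescence ratio is the mean of per-cluster values, each being summed target-cycle Cy3 intensity over summed buffer-cycle Cy3 intensity. Clusters outside 100-1000 RFU were excluded. On a modified Illumina MiSeq flow-cell, the Cy3-labelled switching-strand clusters were annealed to 100 nM quencher-labelled ATP aptamer, imaged in selection buffer and then after 15 min with 500 uM ATP at 22 °C. Five such cycles were run, with NaOH stripping and re-annealing between them.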
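Further: ATP exposure 15 min at 22 °C before imaging.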

Row | Sequence | switch fluorescence ratio
1 | GGGAGGAGAA | 1.05
2 | GCTAGATGGT | 0.965
3 | TAGCGTAGTT | 1.02
4 | CGTGAAATAC | 4.72
5 | TAAGGCGTTT | 1.02
6 | GCAACGGGGA | 0.981
7 | AGAATATGTA | 1.01
8 | CCCGGAA | 1.15
9 | TTTGCGAGGC | 1.12
10 | CGACTGTACG | 1.06
11 | ATTATTCTCG | 0.978
12 | TAGTAGTAC | 1.19
13 | GCGTATGCAT | 1.03
14 | TTGGTGCCTA | 0.957
15 | GCATTACTAG | 1.24
16 | TGGCCAAGGC | 1.02
17 | GCAACGGGG | 0.981
18 | ATGGGAGCGT | 1.02
19 | TTCGGAGCTC | 1.11
20 | AGCTACGGAA | 1.77
21 | CAAGTGCCGA | 1.01
22 | GCACGACGGG | 0.99
23 | TAACCGATCT | 1.07
24 | GCTAATAACA | 0.986
25 | TTTGCATGTT | 1.01
26 | TGAAGCTTTG | 0.986

Row | Sequence | switch fluorescence ratio
27 | ACGATATTGA | 1.06
28 | AGGCAACAGC | 1.05
29 | AAAGTCTATG | 1
30 | TTTTATCGG | 0.997
31 | GTTTCAGACT | 1.02
32 | CCAAAGCAGA | 4.05
33 | TGCCATTGAA | 0.993
34 | GATTTCTAAT | 0.994
35 | ATCCTTGTGA | 1.01
36 | TCAAAGATT | 0.991
37 | GACCGATCC | 1.85
38 | TTATATTATC | 0.998
39 | ATCTTCTCAC | 1.07
40 | TTCTGTGAAC | 2.36
41 | TGGTATTTGT | 1.01
42 | TCGTTCTTCC | 1.74
43 | GGGACTCCCT | 1.01
44 | TAGGATGGG | 0.997
45 | GATGTGTCCC | 0.983
46 | TGATTTTGAA | 1.03
47 | GCGTAGATTG | 1
48 | AAATAGGTGT | 1.1
49 | GATCAGTGTA | 1.01
50 | GTGGCTCGCT | 0.942
51 | CAGTACGAAA | 1.04
52 | AGATCAGGTA | 1.01

Row | Sequence | switch fluorescence ratio
53 | TTCAAGATTG | 0.992
54 | AGCGGCTTTG | 0.992
55 | CTTTTAATTA | 1.04
56 | CCCCGTGGGC | 1.55
57 | CAAGAACGTG | 0.97
58 | CCGTGCGGGT | 1.04
59 | TGGGATCACT | 0.963
60 | TATTCCTTAG | 1.07
61 | TCACTGATTA | 1.02
62 | ATAGTTGATT | 0.958
63 | CGCCGTTACA | 0.988
64 | GATGGCGCGA | 0.945
65 | AAAGATGTGG | 0.94
66 | TATGCGCCAG | 0.969
67 | TGGTAAATGA | 1
68 | TACTTACCTA | 1.27
69 | TCAGTCTGGG | 0.99
70 | AAGCAAGTCG | 1.07
71 | ATCAATAGTT | 0.999
72 | GGTCGGAGTT | 1.03
73 | TGGACCACTT | 1.01
74 | CTTGCTGTCA | 1.02
75 | TTACAAACTA | 1.09
76 | GGTGAACCAG | 0.967
77 | TTCACATTAG | 1.05
78 | CGCCAGTATC | 1.04

Row | Sequence | switch fluorescence ratio
79 | CAGTGAAAGT | 0.994
80 | TGGCGTAAGA | 0.979
81 | CCTGCCTAT | 1.19
82 | GAATATCAGG | 1.02
83 | ATTTGGACAG | 1.03
84 | AGCAGCGGTG | 1.01
85 | GCCTGTAGCA | 1.06
86 | TTGCAAGGGG | 0.988
87 | GCCCCCAAAC | 1.13
88 | AGCCACTATT | 1
89 | GGTAGAACGG | 0.972
90 | TTGTTGTCAG | 0.962
91 | GCTTGTCATC | 0.997
92 | GCGCCAACCT | 1.51
93 | AGTCCAAATA | 0.998
94 | AAGGCCTGCC | 1.04
95 | TTAGTCCGCT | 1.27
96 | CTACGGATGG | 1.06
97 | CCGTAGTCAG | 2.98
98 | GTAAAAATGC | 1.01
99 | TTGATTCTAG | 1.01
100 | GGTATCTCCG | 1.04
101 | TCGTGGCATC | 1.07
102 | AAACAGTTTC | 0.991
103 | CAGAATGCCC | 0.985
104 | ATTGCATTCT | 0.977

Row | Sequence | switch fluorescence ratio
105 | TTGCTACATT | 1.04
106 | CCAATGAGAG | 0.954
107 | TCGCGATGGG | 1.09
108 | AAAATGCGGC | 1
109 | TGATCTAATA | 1.01
110 | GGCGCTATTT | 0.956
111 | AGTCGGGGCG | 0.924
112 | GAGGTGGAGA | 1.04
113 | ACTCAGGTC | 1.06
114 | TCGGACGTGT | 0.927
115 | AGACGTCTGC | 1.01
116 | GGAAAATTT | 1.02
117 | AGTTGGGTA | 1.01
118 | CCAGAGGTGC | 1.76
119 | ACGGCGTGCT | 1.01
120 | ACATAATCCA | 1.04
121 | ATTGGTGGGT | 0.984
122 | CGAAGGGTA | 1.02
123 | GAACGTCCTT | 1.06
124 | GGTCTGGATT | 0.953
125 | CAACAATAGC | 1.25
126 | CGTTATCTGA | 1.04
127 | TAGACAAGGT | 0.965
128 | ATCCACAGCT | 1.1
129 | AGGTCTATTA | 0.967
130 | GCATGTAGAC | 0.982

Row | Sequence | switch fluorescence ratio
131 | AGATATATTG | 0.993
132 | TCCAGCGGA | 0.983
133 | TGAGTTCAGA | 0.968
134 | AGGCGTAATG | 0.983
135 | GCCTATTAAG | 0.989
136 | TGCGGCTCCC | 1.01
137 | AACCGTTGCA | 1.02
138 | AGATTTAGA | 1.02
139 | AAAGCTGACG | 1.03
140 | GTAGGTTGTC | 0.992
141 | GTCCAATCGG | 0.965
142 | ATCCGTTATT | 1.01
143 | CGCATGGTCT | 1.01
144 | GAGCCTCACT | 1.04
145 | CGTCGCGTGG | 0.983
146 | GTCAACATCG | 0.987
147 | CGAGAACGGA | 1.02
148 | GGAAGCATCA | 1.02
149 | GGCTGAGTG | 0.985
150 | TTAACTGTCG | 1.01
151 | CACGCCGACC | 1.42
152 | ACTCACGCTA | 1.92
153 | GTGGGTGAAA | 0.979
154 | TCGCCATCTC | 1.63
155 | GGTTTTGCAT | 0.969
156 | TCTTATCGGA | 1.04

Row | Sequence | switch fluorescence ratio
157 | TTCCCATAGC | 1.17
158 | TCCTCATTCC | 1.35
159 | GGTGAGTGGT | 0.992
160 | ATGGTCGGGC | 1.03
161 | ATGAAGAGTA | 1.02
162 | CTTCGTATAA | 1.77
163 | ATATTTATGA | 0.974
164 | CTCTGGTACA | 1.1
165 | AGATGCAAGT | 1.01
166 | CTCAATTGC | 1.18
167 | ACGCTTTCAT | 1.01
168 | GGGGTCTATA | 0.946
169 | AGCGATGGAG | 1.04
170 | AAGTGTTGTA | 1.01
171 | TTCCCTGGGC | 1.04
172 | AATCTGGTGG | 0.99
173 | GCTTCATCAC | 1.16
174 | ATCCTATGTT | 0.999
175 | GGTCTCATAC | 1.04
176 | ATACTCTCAA | 1.02
177 | GAACCTGGGG | 1.06
178 | AAGGCAGCAT | 1.01
179 | AACAAAATCG | 1.02
180 | TATTAGGAGA | 1.01
181 | AATAGTTCGA | 1.02
182 | TGAGCGTCTC | 1

Row | Sequence | switch fluorescence ratio
183 | TTGCTTTGGC | 0.976
184 | AGAGCGTGTC | 1.06
185 | ACACAGTAT | 1.07
186 | CAGGAGCACG | 1.08
187 | GGACTTGAGT | 1.02
188 | AGAACACATA | 1.06
189 | TTCTAGGAGC | 0.975
190 | GATAGTACAC | 1.07
191 | AATCCTGGGT | 0.995
192 | ACGGAAGTCG | 0.974
193 | CATGCAGCA | 1
194 | CTTTCAGGTG | 4.63
195 | AGAGTTGGG | 0.977
196 | GAGCTGTGAG | 1.03
197 | GGGAGCCCGA | 1.04
198 | GCCGAATATT | 1.02
199 | CCGAACGGCG | 1.26
200 | TAGAGAAGGG | 0.995
201 | TCGCCACTTT | 1.03
